Measured values published in PubChem BioAssay AID624170 (National Center for Advancing Translational Sciences (NCATS), 2012).
The whole screen tested about 410,000 compounds, of which about 850 (0.21%) were called active. Inconclusive means that the source gave no clear call. Such entries were picked first, then a sample of the others. Calls follow the shape of the dose curve; as a rule, active = well fitted inhibition curve with a large enough effect; inconclusive = small, poorly fitted or top-dose-only effect, or another doubt; inactive = no such curve, though single readings can be large or run the other way. Potencies of inconclusive entries are left out as doubtful fits.

target: Glutaminase kidney isoform, mitochondrial (Homo sapiens) (UniProt O94925); test: qHTS for Inhibitors of Glutaminase (GLS); details: GLS enzymatic activity, qHTS titration; series mostly up to 45.5 µM
UniProt O94925, sequence (O94925 whole entry, looked up, canonical isoform): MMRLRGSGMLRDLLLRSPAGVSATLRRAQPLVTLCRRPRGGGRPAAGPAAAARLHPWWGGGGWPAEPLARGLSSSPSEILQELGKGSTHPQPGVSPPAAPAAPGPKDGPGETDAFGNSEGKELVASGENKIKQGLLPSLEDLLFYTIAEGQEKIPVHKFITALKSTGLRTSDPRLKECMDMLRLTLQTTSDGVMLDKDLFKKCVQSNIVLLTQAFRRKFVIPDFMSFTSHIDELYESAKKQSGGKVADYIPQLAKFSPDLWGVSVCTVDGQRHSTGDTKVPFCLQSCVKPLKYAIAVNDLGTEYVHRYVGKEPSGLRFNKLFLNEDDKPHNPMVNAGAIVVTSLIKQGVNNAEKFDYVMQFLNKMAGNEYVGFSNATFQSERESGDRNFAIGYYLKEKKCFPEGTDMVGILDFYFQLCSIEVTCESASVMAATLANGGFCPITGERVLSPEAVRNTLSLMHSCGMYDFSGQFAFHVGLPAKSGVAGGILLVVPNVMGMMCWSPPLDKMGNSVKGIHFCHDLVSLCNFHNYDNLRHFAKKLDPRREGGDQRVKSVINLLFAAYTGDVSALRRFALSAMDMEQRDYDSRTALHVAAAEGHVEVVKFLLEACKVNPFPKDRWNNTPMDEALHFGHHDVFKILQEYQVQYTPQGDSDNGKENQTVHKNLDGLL
Method in brief: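 Enzyme dispensed in phosphate buffer (45 mM, pH 8.2, 0.02% Tween-20), compounds pinned in, then 1 mM L-glutamine solution and the glutamate oxidase–HRP–Amplex Red mix added; fluorescence read immediately and again after 30 min at room temperature.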
Potency is read from the fitted curve at half-maximal effect; tags tell the direction and shape of the fitted curve.

Row | Structure (SMILES) | Potency
1 | CCc1ccc(C2C(C(=O)Nc3ccc(Cl)cc3)=C(C)Nc3ncnn32)cc1 (stereo not given) | inactive
2 | O=C(O)c1ccc(N2C(=O)c3[nH]nc(-c4ccccc4)c3C2c2cccc(F)c2)cc1 (stereo not given) | inconclusive [inhibitor, single point]
3 | C=CCn1c(SCC(=O)Nc2nc(C)cs2)nnc1C(C)NC(=O)c1ccccc1Cl (stereo not given) | inactive
4 | CC(C)(C)c1cc(CCC(=O)NN)cc(C(C)(C)C)c1O | inconclusive [inhibitor, single point]
5 | Cc1ccc(C(O)(C(=O)NNc2ccccn2)c2ccc(C)cc2)cc1 | active: 12.6 µM
6 | O=C(NC1CCCCC1)c1cccs1 | inactive
7 | Cc1cc2c(cc(C(=O)OC(C(=O)NCC3CCCO3)C(C)C)n2C)o1 (stereo not given) | inactive
8 | Cc1cc(C)c(S(=O)(=O)NCC2CCC(C(=O)NCc3ccc4c(c3)OCO4)CC2)c(C)c1 (stereo not given) | inconclusive [inhibitor, single point]
9 | O=C(O)c1csc(Cc2ccccc2)n1 | inconclusive [inhibitor, single point]
10 | CCc1ccccc1OCCSc1nc(-c2cccs2)nc2cc(=O)[nH]n12 | inconclusive [inhibitor, single point]
11 | O=C(NCC(=O)N(c1ccc2c(c1)OCO2)C(C(=O)NC1CCCC1)c1ccncc1)c1ccco1 (stereo not given) | inconclusive [inhibitor, single point]
12 | CC(C)C[C@@H](CN)NC(=O)c1nc[nH]c1C(=O)N[C@@H](C)C(=O)CNC[C@H](CC(C)C)NC(=O)c1nc[nH]c1C(=O)N[C@@H](Cc1ccccc1)C(=O)O | inconclusive [inhibitor, single point]
13 | N#Cc1cccc(NC(=O)CNc2cccc(S(=O)(=O)N3CCCC3)c2)c1 | inconclusive [inhibitor, partial curve, poor fit]
14 | COc1ccccc1-c1cc(N)n(S(=O)(=O)c2cccc3nsnc23)n1 | inactive
15 | Cc1ccc2c(C)c(C(=O)N3CCC(c4nc5ccccc5s4)CC3)oc2c1C | inactive
16 | COc1ccc(Nc2c(-c3ccco3)nc3cccc(C)n23)cc1 | inactive
17 | CCCN1CCc2nc(SCC(=O)Nc3ccc(C)c(Cl)c3)[nH]c(=O)c2C1 | inconclusive [inhibitor, partial curve, poor fit]
18 | CN(C)c1ccc(C2CC(c3c(O)n(C4CCCCC4)c(=O)[nH]c3=O)=Nc3ccccc3S2)cc1 (stereo not given) | inactive
19 | Oc1ccc(O)c(-c2cnns2)c1 | inconclusive [inhibitor, single point]
20 | NS(=O)(=O)c1ccc(CCNC(=O)c2ccc[nH]c2=S)cc1 | inconclusive [inhibitor, single point]
21 | O=C(CCC(=O)OCc1ccc(Br)cc1)Nc1ccccc1 | inconclusive [inhibitor, single point]
22 | O=C(c1ccc(Cl)cc1)C(CN1CCCC1)c1ccccc1 (stereo not given) | inactive
23 | Cc1ccc(C2=NOC(=O)/C2=C\C=C\c2ccccc2)cc1 | inconclusive [inhibitor, single point]
24 | O=C(NC(=S)Nc1ccccc1O)c1cncc(Br)c1 | inconclusive [inhibitor, partial curve, poor fit]

Row | Structure (SMILES) | Potency
25 | COc1ccc(NC(=O)COC(=O)c2ccco2)c([N+](=O)[O-])c1 | inactive
26 | CCOC(=O)c1ccccc1NC(=O)c1ccc2c(SCC(=O)O)c3c(nc2c1)CCCC3 | inconclusive [inhibitor, single point]
27 | CC(C)c1ccc(NC(=O)CSC2=Nc3ccccc3C3=NC(CCC(=O)NCc4ccc(F)cc4)C(=O)N23)cc1 (stereo not given) | inactive
28 | COc1ccc(OCCn2cc(C(=O)c3ccco3)c3ccccc32)cc1 | inactive
29 | OCC1OC([S-])[C@H](O)C(O)C1O.[Au+] (stereo not given in full) | active: 11.2 µM
30 | N#C/C(=C\c1ccc(OCc2ccc(F)cc2)cc1)C(=O)Nc1cccc(C(=O)O)c1 | inconclusive [inhibitor, partial curve, poor fit]
31 | Cc1[nH][nH]c(=O)c1C(c1ccccc1[N+](=O)[O-])C(C#N)C#N (stereo not given) | inconclusive [inhibitor, single point]
32 | NS(=O)(=O)c1ccc(CNC(=O)c2cnccn2)cc1 | inconclusive [inhibitor, single point]
33 | COc1cc(C2Nc3cccc4cccc(c34)N2)ccc1O | active: 11.2 µM
34 | O=C(O)c1cc(N/N=C/c2ccc3c(c2)OCCO3)ccc1Cl | inconclusive [inhibitor, partial curve, poor fit]
35 | Cn1c(=O)c2c(nc(OC/C=C/c3ccccc3)n2C)n(C)c1=O | inactive
36 | O=C(NCCc1ccccc1)c1ccc(CSc2nc3cccnc3n2Cc2ccccc2F)cc1 | inactive
37 | CCCCN=Cc1c(C)[nH]n(-c2ccccc2)c1=S | inactive
38 | O=C(NCc1ccccc1Cl)c1cnn2cccnc12 | inconclusive [inhibitor, partial curve]
39 | O=C(NNc1ccccc1)C(=O)NNS(=O)(=O)c1ccc([N+](=O)[O-])cc1 | inconclusive [inhibitor, partial curve, poor fit]
40 | CCC1CCc2sc(C(=O)N(C)CC(=O)Nc3cccc(OC)c3)cc2C1 (stereo not given) | inactive
41 | COc1cc(/C=C/C(=O)OCC(=O)Nc2ccc(C)c(S(=O)(=O)N3CCCCC3)c2)ccc1O | inconclusive [inhibitor, partial curve, poor fit]
42 | CC(=O)c1ccc(NC(=O)c2cc(S(=O)(=O)N3CCOCC3)ccc2C)cc1 | inactive
43 | Cc1c(-c2ccc(Cl)cc2)oc(=O)c2c(N)n(-c3ccccc3)nc12 | inconclusive [inhibitor, partial curve, poor fit]
44 | CSc1nsc(SCc2ccc(Cl)cc2)n1 | inconclusive [inhibitor, single point]
45 | NS(=O)(=O)c1ccc(NNC(=O)c2cccs2)cc1 | inconclusive [inhibitor, single point]
46 | CC(=O)C1=C(O)C(=O)N(c2ccccn2)C1c1ccccc1[N+](=O)[O-] (stereo not given) | inconclusive [inhibitor, single point]
47 | Cc1ccc(NC(=O)CSc2nc3c(cc2C#N)C(=O)CCC3)cc1S(=O)(=O)N(C)C | inactive
48 | CN1CCN(CCCNC(=O)c2ccc(/C=C3/Sc4ccccc4N(Cc4cccc(Cl)c4)C3=O)cc2)CC1 | inactive

Row | Structure (SMILES) | Potency
49 | COc1ccc(-c2ccc(-c3nc4ccc(C)cn4c3NC3CCCCC3)cc2OC)cc1 | inconclusive [inhibitor, partial curve, poor fit]
50 | Cc1nc2oc3c(=O)[nH]cnc3c2c2c1COC(C)(C)C2 | inconclusive [inhibitor, single point]
51 | C/C(=N\Nc1nc2ccccc2[nH]1)c1ccc(Cl)s1 | inconclusive [inhibitor, single point]
52 | CC(C)(C)c1ccc(OCC(=O)NNC(=S)NC(=O)c2ccco2)c(Br)c1 | inactive
53 | COC1=C/C(=C/c2c(N)n3c(nc2=O)sc2cc(S(C)(=O)=O)ccc23)C=CC1=O | inconclusive [inhibitor, single point]
54 | COc1cc2cc(Oc3ccc4ccc(=O)oc4c3)c(=O)oc2cc1O[C@@H]1O[C@H](CO)[C@@H](O)[C@H](O)[C@H]1O | active: 17.8 µM
55 | CCOc1ccc(N=Nc2c(=O)[nH]n3c(=O)c4c([nH]c23)CCCC4)cc1 | inconclusive [inhibitor, single point]
56 | Cc1ccc(S(=O)(=O)c2c(Nc3ccc(C)c(C)c3)sc(C(=O)c3ccc4c(c3)OCO4)c2N)cc1 | inactive
57 | Cc1ccc(-c2n[nH]c3c2C(c2ccccc2Cl)N(c2ccc(C(=O)O)cc2)C3=O)cc1 (stereo not given) | active: 7.08 µM
58 | Cc1c(NC(=O)/C=C/c2cn(-c3ccccc3)nc2-c2ccc(F)cc2)c(=O)n(-c2ccccc2)n1C | inconclusive [inhibitor, single point]
59 | Cn1cccc1/C=N\NC(=O)C1COc2ccccc2O1 (stereo not given) | inactive
60 | O=C(NCc1cccnc1)Nc1cccc(NC(=O)NCc2cccnc2)c1 | inconclusive [inhibitor, single point]
61 | O=c1c2ccccc2sn1-c1ccccc1 | active: 4.47 µM
62 | CC(C)C[C@@H](CNCC(=O)[C@H](Cc1c[nH]c2ccccc12)NC(=O)c1[nH]cnc1C(=O)N[C@@H](C)CN)NC(=O)c1nc[nH]c1C(=O)N[C@@H](Cc1ccccc1)C(=O)O | inconclusive [inhibitor, partial curve]
63 | CCCCn1c(N)c(N(CCOC)C(=O)c2ccc(-c3ccc(C(C)=O)cc3)o2)c(=O)[nH]c1=O | inactive
64 | O=C(NCc1ccco1)c1ccc2[nH]c(=O)c(=O)[nH]c2c1 | inconclusive [inhibitor, partial curve, poor fit]
65 | CCCCc1n[nH]c(=S)n1Cc1ccc(Cl)cc1 | inconclusive [inhibitor, full curve]
66 | NC(=O)Cc1ccc(Nc2nnc(-c3ccc(O)cc3)c3ccccc23)cc1 | active: 11.2 µM
67 | CCCCN1C(=O)C2(NNc3ccccc3O2)c2ccccc21 (stereo not given) | inactive
68 | CC(C)NCC(O)COC1CCC(C(C)(C)C)CC1 (stereo not given) | inactive
69 | CCn1c2ccc(C)cc2c2n[nH]c(=S)nc21 | inconclusive [inhibitor, single point]
70 | CN1CCN(c2nnc(-c3ccc(Cl)cc3)c3ccccc23)CC1 | inactive
